# Test results as given in the supplement of paper PMC10126150.
# Values marked as one replicate rest on one cluster of the flow cell; about a third of the high ones do not repeat.
# System: ATP
# Assay: switch fluorescence ratio, 500 uM ATP over buffer (Cy3 cluster intensity, sum of 5 cycles each) (fold (ratio)); higher = stronger signal-on switching upon ATP binding; sequences stand for … in TCGTCGGCAGCGTCAGATGTGTATAAGAGACAGTTTTTTTTTTTTTTTTTTTTTTTTT…TC
# Conditions: aptamer strand: ATP DNA aptamer (quencher-CACCTGGGGGAGTATTGCGGAGGAAGG + anchor), 100 nM annealed; ATP concentration: 500 uM; one replicate
# Outline: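 For every switch-domain sequence, the fluorescence ratio is the mean of per-cluster values, each being summed target-cycle Cy3 intensity over summed buffer-cycle Cy3 intensity. Clusters outside 100-1000 RFU were excluded. On a modified Illumina MiSeq flow-cell, the Cy3-labelled switching-strand clusters were annealed to 100 nM quencher-labelled ATP aptamer, imaged in selection buffer and then after 15 min with 500 uM ATP at 22 °C. Five such cycles were run, with NaOH stripping and re-annealing between them.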
# 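Note: ATP exposure 15 min at 22 °C before imaging.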
row,Sequence,switch fluorescence ratio
1,CGCTAGAT,1.07
2,TGATTGACT,0.984
3,CACCCATGG,1.32
4,ATAGTAGCGC,0.953
5,CAATTTGTTG,0.969
6,TTTACATTGC,1.02
7,TGTGAATAGC,0.998
8,CGCAGGCTT,1.15
9,ACCTGGAGGT,0.978
10,CGTTATCCAC,1.07
11,GGGGATGAGT,0.97
12,TAAGCGGTG,1.02
13,TGGAGTTGTC,1.09
14,CAAACCCTAA,1.05
15,TTGCAAATGT,0.996
16,GGGGCTTACC,0.971
17,CTGGAAATGC,2.04
18,GTATGTCCAC,1.02
19,GTCAGAATGG,1.03
20,AATGACGCGT,0.982
21,GGGCAGTCCG,0.984
22,ATTAATTTTT,0.959
23,AATTATTTAC,1.04
24,GTGTTCTGTG,0.953
25,TCGCAATGTG,3.06
26,CTTACGCCCG,1.03

row,Sequence,switch fluorescence ratio
1,AGATAAGCCG,1.04
2,ACCCTGTTG,0.982
3,TCAAGCTGGT,1.02
4,TAATAATCAT,1.05
5,ACTTGTGCT,0.948
6,CTCCACTAGA,1.18
7,AATTATCCG,0.974
8,ATCGCACATC,1.94
9,ACTCGCGCTC,3.33
10,GCGTCTGCTG,1
11,AGGACCTCAT,1.01
12,TAATGAGACT,1.02
13,GTGGAGGGAG,0.985
14,ATCAGATATT,0.986
15,ACGTCCTACG,1.08
16,CGAGAGTAA,1.12
17,TTCTGCAAAA,1.2
18,CTGACGACCA,4.47
19,TTATTCGTCG,1.06
20,GCAAATTTCG,1.04
21,ATATATAACA,1.01
22,CAGTGAGCCG,0.987
23,TATGGCCCAT,1.01
24,GATGCACGCG,0.983
25,GACGCACGGA,1.26
26,GGCTCTATTA,1.01

row,Sequence,switch fluorescence ratio
1,CCCTTTA,1.01
2,CTTGAGTCGT,0.932
3,CACGTATTTA,1.2
4,GTCTCTGGGA,1
5,CGCGCATACG,2.92
6,GTAGTTAGA,0.988
7,CCGGCGGGAA,2.14
8,GGCAGCGGCT,0.971
9,CCGTGCCGCG,1.09
10,AGGCGTCTTG,1
11,GCTTCGCGTA,1.18
12,GTGAGGAGGT,1
13,AAGTGTGTTG,0.959
14,GCACCGGACA,1.18
15,CTATGTGCTA,0.973
16,TGGTTAACGT,1.06
17,CTACCGCCGT,1.07
18,ATGAATGATC,0.998
19,TCCGTAGTAG,3.4
20,TGGATTGGCT,1.02
21,CCAAATACAT,1.08
22,AGGTCAGGGG,1.09
23,CCGTCGGTAT,1.33
24,ACTTAGAGTA,1.03
25,AGGTAGCCAG,1
26,TATTATCTGA,1.04

row,Sequence,switch fluorescence ratio
1,GGTGATGCGT,0.951
2,CCGTAGTAAG,3.89
3,CGTGTATGGA,0.997
4,CAAGTGAGCC,1.02
5,CCCCGTGCGT,1.3
6,TCATCCACTT,1.11
7,GATGAGCCTG,0.959
8,CGGGATGGAA,1.03
9,CAAACATTGA,1.01
10,GGATGCGCTT,1.02
11,GACTTAGATG,1.02
12,CCTCATCACG,1.36
13,GTTACGTGAA,1.32
14,GGGGATCCTC,1.04
15,TGCATTTCA,1.02
16,ACATGATCCG,1.13
17,AGGGCGCTCT,0.95
18,TAGTTCGCCG,1
19,TTGGTTG,1.04
20,TATCTGCTA,1.09
21,CGCAATTTGT,2.22
22,TGGGAGCGAG,1
23,GGTAGACGAG,1.03
24,TATCGGTGGT,1.34
25,GAGTGTACAA,1.01
26,TCACCAGTCG,1.05

row,Sequence,switch fluorescence ratio
1,TTATCGCACG,1.39
2,GGAGATGGGC,0.981
3,GTTGTATATT,1.01
4,GGACAATTGC,1.04
5,GTATATTTGA,1.01
6,ATGTCGACAA,1.01
7,GGCACTGTCA,1.03
8,CGGATCCTGG,1.02
9,CCGGCATGTT,1.12
10,TAAAAGAAT,1.03
11,AAACCGTTCC,2.75
12,AGCAACCGAT,1.14
13,CAATTCAGTC,0.967
14,GAACTTCAAA,0.98
15,GCATACGGAT,1.02
16,CGGCTATTT,0.979
17,TATCAAATCG,1.02
18,GCCGGCAGT,1.02
19,TGCCATTAAC,1
20,TCTCGGTACT,1.09
21,ATTCTCATAT,0.991
22,TATGAGTCCT,0.959
23,GTCTTTATTG,0.988
24,TTGCGACTCG,0.989
25,GTGACACGAG,1
26,GATTTTCTAC,0.997

row,Sequence,switch fluorescence ratio
1,TATGCTTAGC,1
2,AAACCGTGTT,1
3,TTTGCTACGA,1
4,ATGCACTTTA,1.08
5,GGACTTCAGC,0.94
6,ACGCAGGGCA,0.999
7,TATTAATACT,0.935
8,TAGACGAAAG,0.981
9,CAGATACGAC,1.51
10,AGACGTGATT,0.989
11,TAACTACTTG,1.03
12,TAAGAGGCCG,0.978
13,TCGAAAACTA,1.04
14,TTGATCT,1.03
15,TGCAAATGAA,1.05
16,GGAATTGT,0.991
17,AGTTGTTCTA,0.984
18,CGCTGGCGCG,1.03
19,AATAAATTCG,0.994
20,TGTCTGGCGT,1.01
21,AGACGGCGCA,1.03
22,AGAACGCTTG,1.02
23,GCTAGGACCG,1.09
24,TGTTCTAATA,1.05
25,CCGTTGGGCG,1.01
26,CAGTGTGAC,0.99

row,Sequence,switch fluorescence ratio
1,CAGGGATTGG,0.996
2,CGGGAGCGGC,1.07
3,GAGGACGAGT,1
4,GATGATTCGC,1.01
5,CTTGGGGTCC,0.962
6,ACGCTTAGTA,1.06
7,GACCATTGAG,0.981
8,TGGCTTATA,1
9,TACCTATGT,0.967
10,TTGTTTGCTA,1.04
11,CTTCGTCGGA,0.947
12,GGGTTACCTC,0.967
13,CAATATGTG,0.994
14,TACCGCCGCA,1.28
15,CCTGACTCGG,1.29
16,GATGTTCCAA,0.97
17,ATGTTACGTG,0.99
18,ACTTGTTACA,1.05
19,GACATGCAAG,0.96
20,TAATGCTATC,1.03
21,CCGGGCTAAG,1.22
22,TCCCTCACCG,1.02
23,GTAGGGTTTC,0.978
24,CTTTTTGCGG,1.2
25,ACAGGGATGG,0.985
26,TGAGCACTCT,1.49

row,Sequence,switch fluorescence ratio
1,TAGGTCCGGT,0.995
2,CTGAGGTGGC,0.995
3,GAAAAAGCTC,0.978
4,AAATGCCGCT,1.08
5,GGCTAATAAC,1.09
6,TAGCCCACTA,1
7,TCTATGAGTT,0.98
8,GTCTCTAATA,0.978
9,GTTGGTTGAC,1.04
10,GCCGTAAAGG,0.964
11,CGAAATGAAG,0.988
12,ATATCGTTTT,0.971
13,GAGTAGTG,0.983
14,GACGCGAGG,1.2
15,CAGATAAGTT,0.982
16,ACCGTTAGGC,1.01
17,CCTTTACAT,1.07
18,GGCGAATGTG,0.983
19,GAAGATAAGT,1
